# “And” between values parts separate entries of the source, which are not always exact repeats. Equal entries are not always repeated. Inconclusive means that the source gave no clear call. Such entries were picked first, then a sample of the others. For some of these results: Where the call is inconclusive, the potency comes from a doubtful curve fit. The source made the active and inactive calls. Unless noted, the call rests on the fitted dose curve; in most records, active means well fitted curve in the direction sought with a large enough effect in the repeat runs; inconclusive means weak or mixed curves; inactive means no such curve, though single readings can be large; an effect the other way counts as inactive or inconclusive.
# Legend:
# [1] = qHTS assay to identify small molecule antagonists of the estrogen related receptor (ERR) signaling pathway - cell viability counter screen (AID 1224818); further: potency means the concentration at half of the fitted maximal effect
# Summary of the method: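 Viability of ERR cells, CellTiter-Fluor fluorescence; 17.5 h compound exposure at 37 C, DMSO vehicle; 30 min reagent incubation at 37 C/5% CO2.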
# [2] = qHTS assay to identify small molecule antagonists of the estrogen related receptor (ERR) signaling pathway (AID 1224819; further: nearly all actives have a fitted effect of over 50% in size; further: potency means the concentration at half of the fitted maximal effect)
# Summary of the method: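 Seed ERR cells 2,000/well; rest 6 h at 37 C/5% CO2; pin compounds in DMSO; incubate 18 h at 37 C; add One-Glo; wait 30 min at room temperature; measure luminescence.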
# [3] = test system: estrogen-related receptor alpha (ERRalpha) with PGC-1alpha coactivator, human; test: qHTS assay to identify small molecule antagonists of the estrogen related receptor signaling pathway with the pleiotropic PPARgamma coactivator (PGC) (AID 1224821; calls by dose curve; further: nearly all actives have a fitted effect of over 50% in size; further: potency means the concentration at half of the fitted maximal effect;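 on activity change, negative = inhibition: on the % scale 0 is the no-effect control and ±100 the full control effect; lower luminescence signal means antagonism of PGC/ERR signalling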)
# Summary of the method: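 A PGC/ERR cell line supplied by NTP is seeded, allowed 6 h at 37 C, and treated with test compounds in DMSO for 18 h. Signal is then measured as luciferase luminescence using One-Glo.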
# [4] = qHTS assay to identify small molecule antagonists of the estrogen related receptor signaling pathway with the pleiotropic PPARgamma coactivator (PGC) cell viability counter screen (AID 1224822; further: potency means the concentration at half of the fitted maximal effect)
# Summary of the method: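 17.5 h compound treatment of PGC/ERR cells at 37 C; readout CellTiter-Fluor fluorescence; run alongside the PGC/ERR antagonist screen to flag cytotoxic compounds.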
# [5] = qHTS assay to identify small molecule agonists of the estrogen related receptor signaling pathway with the pleiotropic PPARgamma coactivator (PGC) (AID 1224823); further: potency means the concentration at half of the fitted maximal effect
# Summary of the method: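 Compounds dissolved in DMSO are added by pin tool to PGC/ERR cells that have settled for 6 h, and incubation continues 18 h at 37 C. Reporter output is measured as One-Glo luminescence.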
# [6] = qHTS assay to identify small molecule agonists of the estrogen related receptor (ERR) signaling pathway (AID 1224820); further: potency means the concentration at half of the fitted maximal effect
# Summary of the method: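 An ERR cell line provided by NTP was seeded at 2,000 cells per well and allowed to settle for 6 h before compounds in DMSO were added. After 18 h at 37 C, luciferase activity was measured by One-Glo luminescence.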
# [7] = molecular target: Glucocorticoid receptor (Homo sapiens) (UniProt P04150); test: qHTS assay to identify small molecule antagonists of the glucocorticoid receptor (GR) signaling pathway (AID 720692; active means well fitted inhibition curve with a large enough effect in the signal ratio in the repeat runs, not every such curve was filed as active; inconclusive means weak or mixed curves, or effect the other way; inactive means no such curve, though single readings can be large or run the other way; the % refers to the signal ratio; further: on the % scale 0 is the no-effect control and ±100 the full control effect); conditions: GR-bla HeLa, beta-lactamase FRET ratio, dexamethasone-stimulated, 18 h; activity change, negative = inhibition: at 58.5 µM (top of the series) unless noted
# Summary of the method: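 In a 1536-well cell format, compounds were added 4 h after seeding GR-bla HeLa cells, together with dexamethasone at 5 nM final; reporter activity was measured by FRET-substrate fluorescence following 18 h at 37 C.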
# [8] = qHTS assay for identifying genotoxic compounds that show differential cytotoxicity against isogenic chicken DT40 cell lines with known DNA damage response pathways - wild type cell line (AID 743012); conditions: DT40 wild type chicken cells viability, CellTiter-Glo, 40 h; activity change, negative = cytotoxicity: at 68.4 µM (top of the series) unless noted; further: on the % scale 0 is the no-effect control and ±100 the full control effect; nearly all actives have a fitted effect of over 60% in size
# Summary of the method: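 Viability of DNA repair-proficient chicken DT40 cells was assessed by CellTiter-Glo luminescence following 40 h compound exposure at 37 C/5% CO2.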
# [9] = qHTS assay to identify small molecule antagonists of the thyroid receptor (TR) signaling pathway - cell viability counter screen (AID 743064); conditions: GH3.TRE-Luc viability, CellTiter-Fluor, 24 h; activity change, negative = cytotoxic: at 70.3 µM (top of the series) unless noted; further: potency means the concentration at half of the fitted maximal effect; nearly all actives have a fitted effect of over 50% in size
# Summary of the method: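 GH3.TRE-Luc rat pituitary cells dosed after 4 hr plating, co-stimulated with T3 at 1 nM final, incubated 23.5 h at 37 C. Viability measured in the same wells by CellTiter-Fluor fluorescence after 30 min further at 37 C.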
# [10] = qHTS assay to identify small molecule antagonists of the thyroid receptor (TR) signaling pathway (AID 743065); further: potency means the concentration at half of the fitted maximal effect; nearly all actives have a fitted effect of over 55% in size
# Summary of the method: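 Antagonism measured as loss of luciferase signal in GH3 cells stably carrying a TRE-luciferase reporter, co-treated with compound and T3 (1 nM final) for 23.5 h at 37 C. Viability was read in the same well by CellTiter-Fluor.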
# [11] = molecular target: Estrogen receptor (Homo sapiens) (UniProt P03372); test: qHTS assay to identify small molecule agonists of the estrogen receptor alpha (ER-alpha) signaling pathway (AID 743075; calls by dose curve;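 further: HEK293 GripTite cells with ER-alpha and UAS-driven beta-lactamase reporter; on the % scale 0 is the no-effect control and ±100 the full control effect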); conditions: HEK293 ER-alpha-UAS-bla, beta-lactamase FRET ratio, 18 h; activation: at 70.1 µM (top of the series)
# [12] = qHTS assay for small molecule agonists of the antioxidant response element (ARE) signaling pathway (AID 743202; active means well fitted activation curve with a large enough effect in the signal ratio in the repeat runs, not every such curve was filed as active; inconclusive means weak or mixed curves, or effect the other way; inactive means no such curve, though single readings can be large or run the other way; the % refers to the signal ratio; further: on the % scale 0 is the no-effect control and ±100 the full control effect); conditions: HepG2 ARE-bla reporter, beta-lactamase FRET, 16 h; activation: at 73.3 µM (top of the series) unless noted
# Summary of the method: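 After 16 hours of compound treatment at 37 C, HepG2 cells with a stably integrated ARE-driven beta-lactamase reporter were loaded 2 hours at room temperature with LiveBLAzer B/G FRET substrate and fluorescence intensity measured.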
# [13] = qHTS assay to identify small molecule agonists of the retinoic acid receptor (RAR) signaling pathway (AID 1159553); conditions: C3RL4 RARE luciferase reporter, agonist, 6 h; activation: at 73.3 µM (top of the series) unless noted; further: on the % scale 0 is the no-effect control and ±100 the full control effect
# Summary of the method: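 In this cell-based screen, 1,000 C3RL4 cells per well were cultured overnight, dosed with test chemicals in DMSO for 6 hr, and assessed for RARE luciferase luminescence.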
# [14] = qHTS assay to identify small molecule antagonists of the TGF-beta/Smad signaling pathway (AID 1346924; active means well fitted inhibition curve with a large enough effect in the signal ratio in the repeat runs, not every such curve was filed as active; inconclusive means weak or mixed curves; the % refers to the signal ratio); conditions: SBE-bla HEK293T, TGF-beta/Smad reporter, beta-lactamase ratio; activity, negative = inhibition: at 76.8 µM (top of the series) unless noted
# Summary of the method: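 Read-out was FRET-substrate fluorescence (405 nm excitation; 460 and 530 nm emission) after 2 h at room temperature. Before that, cells carrying a Smad-binding-element beta-lactamase reporter in HEK 293T had been stimulated 5 h at 37 C with TGF-beta1 (0.25 ng/mL addition solution) in the presence of test compound.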
# Tags describe the fitted curve by direction and shape.
# UniProt P04150, sequence (P04150 whole entry, looked up): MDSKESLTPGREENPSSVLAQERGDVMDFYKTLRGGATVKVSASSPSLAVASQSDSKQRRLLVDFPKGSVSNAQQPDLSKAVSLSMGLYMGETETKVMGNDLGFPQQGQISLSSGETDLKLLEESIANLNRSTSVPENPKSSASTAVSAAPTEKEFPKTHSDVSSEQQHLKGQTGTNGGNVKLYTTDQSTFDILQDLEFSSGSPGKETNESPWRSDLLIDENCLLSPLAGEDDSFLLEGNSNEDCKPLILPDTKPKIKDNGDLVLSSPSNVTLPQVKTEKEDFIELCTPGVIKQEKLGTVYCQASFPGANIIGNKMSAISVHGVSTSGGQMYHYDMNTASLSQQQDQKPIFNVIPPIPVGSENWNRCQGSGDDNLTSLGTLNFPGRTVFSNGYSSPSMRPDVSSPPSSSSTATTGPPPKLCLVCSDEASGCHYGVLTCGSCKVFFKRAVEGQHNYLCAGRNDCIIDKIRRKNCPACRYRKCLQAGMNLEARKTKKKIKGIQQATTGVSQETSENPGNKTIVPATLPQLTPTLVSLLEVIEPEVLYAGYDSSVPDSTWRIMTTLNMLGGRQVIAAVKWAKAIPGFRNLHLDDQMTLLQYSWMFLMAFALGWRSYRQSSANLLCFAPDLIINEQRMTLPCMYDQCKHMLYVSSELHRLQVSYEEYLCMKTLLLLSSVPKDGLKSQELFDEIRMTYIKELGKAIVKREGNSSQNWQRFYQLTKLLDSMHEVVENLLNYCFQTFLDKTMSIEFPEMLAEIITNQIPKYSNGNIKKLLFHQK
# UniProt P03372, sequence (P03372 whole entry, looked up): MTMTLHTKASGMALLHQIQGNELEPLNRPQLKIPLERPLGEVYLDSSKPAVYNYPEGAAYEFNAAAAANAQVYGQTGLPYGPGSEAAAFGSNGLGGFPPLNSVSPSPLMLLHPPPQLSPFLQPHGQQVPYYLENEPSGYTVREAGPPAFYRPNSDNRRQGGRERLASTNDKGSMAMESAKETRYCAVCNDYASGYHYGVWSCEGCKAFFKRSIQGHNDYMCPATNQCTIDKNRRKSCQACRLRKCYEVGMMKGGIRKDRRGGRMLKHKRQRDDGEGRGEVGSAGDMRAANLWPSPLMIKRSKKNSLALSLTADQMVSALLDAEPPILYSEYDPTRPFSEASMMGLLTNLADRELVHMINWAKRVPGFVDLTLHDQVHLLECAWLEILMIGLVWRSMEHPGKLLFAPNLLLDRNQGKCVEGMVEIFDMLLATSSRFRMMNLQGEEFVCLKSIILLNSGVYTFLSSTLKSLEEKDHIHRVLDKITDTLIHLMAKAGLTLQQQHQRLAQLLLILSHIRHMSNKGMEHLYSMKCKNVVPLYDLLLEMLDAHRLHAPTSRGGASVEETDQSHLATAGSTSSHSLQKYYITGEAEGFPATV
smiles,measurement,setting,value
CC(C)c1ccc2c(c1)c(SC(C)(C)C)c(CC(C)(C)C(=O)O)n2Cc1ccc(Cl)cc1,Potency,[1],inconclusive: 22.8 µM [cytotoxic]
same,Potency,[2],active: 12.8 µM
same,Potency,[3],active: 20.3 µM
same,Potency,[4],"inconclusive: 33.5 µM [cytotoxic, partial curve, poor fit]"
COc1ccc(/C=C/c2nc(NCCCN(C)C)c3ccccc3n2)cc1,Potency,[1],"inconclusive: 23.7 µM [cytotoxic, partial curve, poor fit]"
same,Potency,[2],inconclusive: 28.7 µM [inhibitor]
same,Potency,[3],active: 23.7 µM
same,Potency,[4],"inconclusive: 21.1 µM [cytotoxic, single point]"
COC(=O)C1=C(C)NC(C)=C(C(=O)OC)C1c1cccc(NC(=O)NCCCN2CCC(c3cccc(OC)c3)CC2)c1,Potency,[1],inconclusive: 24.6 µM [cytotoxic]
same,Potency,[2],inconclusive: 26.6 µM [inhibitor]
same,Potency,[3],active: 31 µM
same,Potency,[4],active: 20.3 µM
O=[N+]([O-])c1ccc2c(c1)S(=O)(=O)C=C2,Potency,[1],inconclusive: 32.2 µM [cytotoxic]
same,Potency,[2],"inconclusive: 33.5 µM [inhibitor, single point]"
same,Potency,[3],inconclusive: 16.8 µM [inhibitor]
same,Potency,[4],active: 11.4 µM
same,Potency,[5],inconclusive: 4.73 µM [activator]
Clc1ccc(N2CCN(Cc3c[nH]c4ncccc34)CC2)cc1,Potency,[1],inactive
same,Potency,[2],"inconclusive: 8.41 µM [inhibitor, partial curve, poor fit]"
NC(=NCc1ccccc1)NC(=O)c1nc(Cl)c(N)nc1N,Potency,[1],"inconclusive: 21.1 µM [cytotoxic, single point]"
same,Potency,[2],"inconclusive: 33.5 µM [inhibitor, partial curve, poor fit]"
same,Potency,[3],inactive
same,Potency,[4],"inconclusive: 29.8 µM [cytotoxic, single point]"
same,Potency,[5],inactive
CN(C)c1ccc(/C=C2\C(=O)Nc3ccccc32)cc1,Potency,[1],inconclusive: 18.8 µM [cytotoxic]
same,Potency,[2],inactive
same,Potency,[6],active: 3.35 µM
same,Potency,[4],inconclusive: 22.8 µM [cytotoxic]
same,Potency,[5],active: 3.1 µM
CCCCC[C@H](CC(=O)NO)C(=O)N[C@H](C(=O)N1CCC[C@H]1CO)C(C)C,Potency,[1],inconclusive: 0.779 µM [cytotoxic]
same,Potency,[2],active: 5.11 µM
same,Potency,[3],active: 10.2 µM
CCc1cncnc1N1CCN(Cc2nc3ccc(C(F)(F)F)cc3[nH]2)CC1,Potency,[1],inactive
same,Potency,[2],active: 6.94 µM
same,Potency,[3],inconclusive: 12.6 µM [inhibitor]
same,Potency,[4],inactive
COc1ccc(C(=O)/C(Cc2cc(OC)c(OC)c(OC)c2)=C(\C(=O)O)c2ccc3c(c2)OCO3)cc1,Potency,[1],inconclusive: 18.8 µM [cytotoxic]
same,Potency,[2],active: 10.2 µM
same,Potency,[3],inconclusive: 24.6 µM [inhibitor]
same,Potency,[4],active: 18.8 µM
CC[C@@H](C)[C@H]1O[C@]2(CC[C@@H]1C)C[C@@H]1C[C@@H](C/C=C(\C)[C@@H](O[C@H]3C[C@H](OC)[C@@H](O[C@H]4C[C@H](OC)[C@@H](O)[C@H](C)O4)[C@H](C)O3)[C@@H](C)/C=C/C=C3\CO[C@@H]4[C@H](O)C(C)=C[C@@H](C(=O)O1)[C@]34O)O2,Potency,[1],inconclusive: 28.7 µM [cytotoxic]
same,Potency,[2],active: 12.3 µM
same,Potency,[3],active: 16.8 µM
same,Potency,[4],active: 23.7 µM
Nc1nc(SCc2ccc([N+](=O)[O-])cc2)c2ncn([C@@H]3O[C@H](CO)C(O)[C@H]3O)c2n1 (stereo not given in full),Potency,[1],inactive
same,Potency,[2],"inconclusive: 23.7 µM [inhibitor, single point]"
same,Potency,[3],inactive
C[N+]1(C)[C@@H]2CC(OC(=O)[C@H](CO)c3ccccc3)C[C@H]1[C@@H]1O[C@@H]12 (stereo not given in full),Potency,[7],inactive
same,Potency,[8],inactive
same,Potency,[9],"inconclusive: 13.3 µM [cytotoxic, single point]"
same,Potency,[10],"inconclusive: 18.8 µM [inhibitor, single point]"
same,Potency,[11],inactive
same,Potency,[12],inactive
same,Potency,[13],inactive
same,"activity, negative = inhibition",[14],inconclusive: 0.0423% [at 35.3 µM]
CC(C)C[C@H](NC(=O)[C@@H](O)[C@H](N)Cc1ccccc1)C(=O)O,Potency,[1],"inconclusive: 1.06 µM [cytotoxic, full curve]"
same,Potency,[2],inconclusive: 5.31 µM [inhibitor]
same,Potency,[6],inactive
same,Potency,[3],active: 6.94 µM
CC(C)(C)[C@]1(O)CCN2C[C@H]3c4ccccc4CCc4cccc(c43)[C@@H]2C1,Potency,[1],"inconclusive: 33.5 µM [cytotoxic, partial curve, poor fit]"
same,Potency,[2],"inconclusive: 25.6 µM [inhibitor] and inconclusive: 23.7 µM [inhibitor, partial curve]"
same,Potency,[3],inconclusive: 8.41 µM [inhibitor] and active: 17.4 µM
same,Potency,[4],"inconclusive: 33.5 µM [cytotoxic, single point]"
CN(C)c1cc2c(Nc3ccc4c(cnn4Cc4ccccc4)c3)ncnc2cn1,Potency,[1],"inconclusive: 18.8 µM [cytotoxic, single point]"
same,Potency,[2],active: 13.3 µM
same,Potency,[3],"inconclusive: 33.5 µM [inhibitor, single point]"
same,Potency,[4],inconclusive: 24.6 µM [cytotoxic]
Clc1ccc2c(c1)N=C(N1CCNCC1)c1ccccc1N2,Potency,[1],inconclusive: 29.8 µM [cytotoxic]
same,Potency,[2],"inconclusive: 29.8 µM [inhibitor, single point]"
same,Potency,[4],inconclusive: 26.6 µM [cytotoxic]

# Source: PubChem BioAssay (Tox21)
